# Results as given in PubChem BioAssay AID2202238 (Ras Initiative Chemistry Research Team, Frederick National …, 2025).
# This is one part of the list. The main result of the screen is listed elsewhere. These columns were measured beside it and carry no call.
# Target: GTPase KRas (Homo sapiens) (UniProt P01116)
# Test: Fragment capture on engineered cysteines, share of protein labelled (AID 2202238)
# Parameters: protein at 5 µM with 500 µM competing thiol for 1.5 h
# Conditions: KRAS G12D cysteine mutants, disulfide tethering, MALDI-TOF labeling, stronger effect = higher value, fragment at 500 µM
# [1] = measured here: G60C mutant labeling
# [2] = measured here: G75C mutant labeling
# [3] = measured here: H94C mutant labeling
# [4] = measured here: I36C mutant labeling
# [5] = measured here: L120C mutant labeling
# [6] = measured here: M67C mutant labeling
# [7] = measured here: M72C mutant labeling
# [8] = measured here: N26C mutant labeling
# [9] = measured here: N86C mutant labeling
# [10] = measured here: P121C mutant labeling
# [11] = measured here: S122C mutant labeling
# [12] = measured here: S136C mutant labeling
# UniProt P01116, sequence (P01116 whole entry, looked up, the tested form may be a part): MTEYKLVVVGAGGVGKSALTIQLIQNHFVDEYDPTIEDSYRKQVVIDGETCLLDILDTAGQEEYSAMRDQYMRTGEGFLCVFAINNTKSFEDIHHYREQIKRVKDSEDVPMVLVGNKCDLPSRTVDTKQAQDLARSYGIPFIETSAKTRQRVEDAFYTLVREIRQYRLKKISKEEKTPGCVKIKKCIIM
Structure (SMILES),percent labeling [1],percent labeling [2],percent labeling [3],percent labeling [4],percent labeling [5],percent labeling [6],percent labeling [7],percent labeling [8],percent labeling [9],percent labeling [10],percent labeling [11],percent labeling [12]
O=C(NCCS)c1cc(-c2ccc(Cl)cc2)ns1,34.6%,14.9%,14.6%,10.9%,12.8%,9.4%,32.7%,33.4%,12%,10.4%,8.7%,13.4%
Cn1cc(-c2ccccc2)nc1C(=O)NCCS,15.9%,10.5%,11.5%,7.2%,10.3%,10.6%,22.2%,30.4%,4.9%,8.3%,6.2%,15.6%
O=C(CCS)NC1CC(c2cccc(Cl)c2)C1 (centres undefined),–,8.6%,16.4%,15.7%,13.3%,13.6%,21.2%,–,7.5%,17%,13.4%,29.4%
O=C(Cn1c(=O)[nH]c2ccccc2c1=O)NCCS,33.9%,14.1%,23.8%,26.3%,52.2%,33%,55.4%,39.8%,27.4%,24.9%,26.1%,35.6%
O=C(CCOc1cccc(Cl)c1Cl)NCCS,45%,40.6%,31.9%,12.9%,36.9%,37.3%,55.2%,35.3%,21%,26.5%,15.1%,26.3%
O=C(Cn1cnc2c(oc3ccccc32)c1=O)NCCS,24.2%,7.2%,13%,15.6%,47%,40.1%,20.5%,24.9%,13.7%,22%,10.2%,17.1%
CCc1c(C(=O)NCCS)nnn1Cc1ccccc1,26.5%,15.2%,19.4%,13.6%,24.3%,30.5%,47.4%,31.6%,16.7%,17.5%,16.6%,27.7%
Cn1c(=O)[nH]c2ncc(-c3cccc(C(=O)NCCS)c3)cc21,14.7%,4.5%,8%,6.5%,5.7%,7.7%,36.6%,40.8%,6%,5.9%,3.4%,10.5%
Cc1nn(CC(F)F)c(C)c1NC(=O)CCS,–,8.8%,36.1%,35.4%,30.1%,36.5%,17.3%,–,35.6%,34.5%,36.4%,53.6%
N#Cc1ccc(N2CCCC2C(=O)NCCS)cc1 (centres undefined),26.9%,11%,23%,20.4%,22.8%,28.8%,12.7%,21.2%,14.7%,19.4%,16.6%,22.4%
Cc1nc(-c2ccc(C(=O)NCCS)cc2)n[nH]1,31.9%,20.5%,26.6%,19.4%,30.5%,24.5%,47.9%,46.9%,35.3%,21.5%,23.6%,36.7%
O=C(CCS)N1CCN(C(=O)c2cc(Cl)c[nH]2)CC1,–,17.2%,32.6%,46.6%,40.1%,38.7%,27.5%,–,21.4%,40.1%,33.3%,57.9%
Cc1cc(-c2cc(C(=O)NCCS)c3c(C)noc3n2)c(C)o1,20.6%,12.4%,10.9%,3.9%,3.8%,2.7%,2.8%,11.2%,0%,8.4%,2.8%,7.8%
Cc1cc(C(=O)NCCS)c(C)n1Cc1ccccc1,17%,3.3%,11.7%,9.7%,15.9%,9.9%,9%,10.7%,6.1%,10.5%,10.3%,18%
Cc1nnnn1-c1ccc(C(=O)NCCS)c(F)c1,31.7%,22.5%,33.3%,29.6%,36.8%,37.7%,43.7%,43.7%,31.3%,38.3%,33.2%,44.2%
Cc1noc2nc(C(C)C)cc(C(=O)NCCS)c12,46.2%,13.6%,25.8%,18.8%,22.6%,21.7%,26.3%,33.9%,17.3%,19.8%,17%,58.7%
Cc1c(CNC(=O)CCS)oc2ccc(Cl)cc12,–,13.7%,33.8%,22.9%,27.3%,25.2%,36.3%,–,16.6%,23.8%,15.2%,38%
O=C(NCCS)C1(C2CCCCC2)CCCCC1,32.5%,17.2%,13.7%,6.4%,18.5%,9.5%,28.7%,22.7%,14.4%,14.2%,7.9%,19.4%
O=C(NCCS)c1cc(=O)[nH]c2cc(F)ccc12,14.3%,8%,8.2%,6.4%,10%,18.5%,32.7%,31.3%,10.2%,8.7%,8.1%,11.3%
NC(=O)N1CCc2ccc(NC(=O)CCS)cc21,–,8.9%,12.1%,18.6%,23.4%,16.6%,31.7%,–,15.6%,18.2%,19.5%,36.6%
O=C(NCCS)c1nc2c(Br)cccn2n1,44.7%,72.1%,42.8%,31%,65.2%,38.6%,73.8%,45.8%,30.2%,38.3%,31.3%,52.3%
Cc1cnc(C2(NC(=O)CCS)CCOCC2)[nH]1,–,7.4%,26.4%,39.9%,20.5%,34.4%,9.7%,–,22.7%,28.1%,25.8%,45.3%
O=C(NCCS)c1cccc(-c2ccccc2)n1,17.6%,23.1%,13.4%,7.4%,12.4%,9.6%,36.1%,28.1%,7%,11.8%,7%,22.3%

Structure (SMILES),percent labeling [1],percent labeling [2],percent labeling [3],percent labeling [4],percent labeling [5],percent labeling [6],percent labeling [7],percent labeling [8],percent labeling [9],percent labeling [10],percent labeling [11],percent labeling [12]
COC1CCn2cc(C(=O)NCCS)nc2C1 (centres undefined),17.9%,13.5%,25.5%,19.1%,45.7%,28.2%,25%,35.2%,22%,26.1%,25.7%,44.2%
O=C(NCCS)c1ccn(-c2cccc(F)c2)n1,18.4%,19.7%,19.5%,11.6%,26.1%,10.2%,54%,29.4%,9.7%,17.2%,10.3%,26.6%
CC(C)N(CC(=O)N1CCCCCC1)C(=O)CCS,–,9.7%,36.7%,29.3%,35.9%,31.8%,21.1%,–,20.6%,32.4%,37.7%,56.4%
CN(C)C(=O)Cn1cccc(C(=O)NCCS)c1=O,26.1%,5.7%,32.3%,23.2%,40.5%,35.4%,29.3%,32.2%,24.6%,29%,33%,49.8%
NS(=O)(=O)c1ccc(C(=O)NCCS)cc1,31.1%,23.6%,35.2%,32.6%,36.1%,30.7%,50.5%,46.1%,29.3%,36%,34.1%,52.7%
O=C(CC1NC(=O)N(c2ccc(F)cc2)C1=O)NCCS (centres undefined),45.5%,15.1%,36.3%,31%,35.3%,34.4%,32.6%,41.8%,28.1%,36%,37.8%,33.4%
CCCN(CC(=O)Nc1ccccc1OC)C(=O)CCS,–,11.2%,35.7%,30.9%,32.6%,34.6%,36%,–,26.2%,36%,29.7%,52%
Cn1c(C(F)(F)F)nc2cc(C(=O)NCCS)ccc21,15.5%,8.7%,16.1%,14.3%,18.8%,14%,31.3%,35%,15.1%,13.4%,12.2%,23.7%
O=C(CCS)Nc1nnc(-c2ccccc2)s1,–,8.2%,7.8%,19.3%,9.4%,9.7%,48.8%,–,3.2%,16.7%,9.4%,23.2%
O=C(CCS)NCc1ccc(Oc2ccccc2)nc1,–,12.2%,37.8%,37.2%,33.3%,67.1%,27.4%,–,30.5%,29.7%,28.4%,45.8%
O=C(NCCS)c1csc(-c2cnn(-c3ccccc3)n2)n1,14.5%,13.6%,8.9%,5.8%,6%,0%,28.5%,18.4%,0%,0%,0%,6.4%
Cc1ccc(-n2nc(C)c(C(=O)NCCS)n2)c(C)c1,33%,8.7%,12.1%,16.3%,16.3%,9%,36.4%,23%,12.7%,19.5%,11.9%,33.1%
CCc1c(C)nn(-c2cccc(C(=O)NCCS)c2)c1C,26.8%,14.7%,19.6%,12.7%,20.2%,14.7%,39.3%,34.2%,9.6%,15.6%,12%,27.3%
Cc1nccn1-c1cc(C(=O)NCCS)ccn1,39.8%,15.9%,35%,19.7%,24.9%,16.1%,16.9%,16.8%,6.1%,31.4%,10.7%,30.6%
CN(CCCc1[nH]nc(N)c1C#N)C(=O)CCS,–,10.7%,32.9%,44.7%,42.5%,41.8%,31.5%,–,39.1%,35.6%,38.3%,59.4%
O=C(CCS)N1CC2(CC(C(F)F)=NO2)C1,–,11.8%,26.6%,34.5%,22.6%,27.7%,13.5%,–,12.8%,33%,33.3%,42.4%
Cc1nc2[nH]n(C)c(=O)c2c(C)c1CCC(=O)NCCS,35.4%,11.8%,26.7%,25%,27%,27%,10%,30.1%,21.3%,25.5%,22.7%,29.6%
Cn1nc(C(=O)NCCS)cc1C1CC1,41.2%,27.4%,41.6%,30.7%,48.8%,37.2%,49.9%,43.5%,32.7%,33.9%,37.2%,54.3%
COc1ccc2[nH]cc(CC(=O)NCCS)c2c1,32.5%,15.5%,21.6%,8.8%,30.8%,21.6%,30.9%,25.9%,11.2%,17.8%,14.1%,27.3%
CN(Cc1ccc(Cl)cc1Oc1ccc(Cl)cc1)C(=O)CCS,–,22.7%,33.3%,28.5%,24.2%,17%,35.8%,–,17.8%,21.6%,10.2%,51.7%
O=C(NCCS)c1cccnc1-n1cc(Br)cn1,52.7%,13.7%,34.2%,29.5%,39.9%,33.7%,35.7%,34.6%,22.1%,30.5%,22.9%,43.8%
O=C(NCCS)c1cnn(C2CCCOC2)c1C(F)(F)F (centres undefined),37.3%,16.3%,35.4%,24.7%,31.8%,33.7%,36.1%,38.4%,32.7%,32.5%,32.1%,44.7%
